About 4,300 (8.3%) of roughly 52,000 compounds were called active. No stated cut-off is given here; in the data, active means survival mostly below about 52% (no sharp cut-off); inactive means mostly above about 56%. Some of the results follow.
tested on: DeltatarO mutant; test: S. aureus survival, RN4220 and DeltatarO strains – OD600, teichoic acid synthesis inhibitors, primary screen (AID 463173); conditions: S. aureus RN4220 wild type/DeltatarO growth, OD600, 18 h, stronger effect = lower value, screened at 18.75 µg/mL (by protocol)

| SMILES | survival |
| --- | --- |
| COc1cc(CNc2ccc3[nH]c(=O)[nH]c3c2)cc(Br)c1OCc1ccc(F)cc1 | inactive: 99% |
| COc1ccccc1CNC(=O)c1cc2cc(C)ccc2n1C | inactive: 80% |
| O=C(Cn1c(C(=O)OCCO)cc2ccccc21)c1ccccc1 | inactive: 99% |
| O=C(COc1ccccc1)NCC1COc2ccccc2O1 (centres undefined) | inactive: 91% |
| COCCNc1ncnc2onc(-c3ccc(F)cc3)c12 | inactive: 94% |
| COc1ccc(-c2cc(C(F)(F)F)nc(SCCC(=O)Nc3cccc(O)c3)n2)cc1 | inactive: 66% |
| Cc1cc(=O)n(CC(=O)Nc2cccc([N+](=O)[O-])c2)c(-n2nc(C)cc2C)n1 | inactive: 95% |
| CC(NC(=O)c1ccc2nc(Cc3ccccc3)oc2c1)c1ccccc1 (centres undefined) | inactive: 75% |
| COC(=O)c1c(NC(=O)c2cc3nc(-c4ccc(Br)cc4)cc(C(F)(F)F)n3n2)sc2c1CCCC2 | inactive: 70% |
| COc1ccc(OC)c(NC(=O)N2CCC(N3CCN(Cc4ccc(F)cc4)C(=O)C3=O)CC2)c1 | inactive: 90% |
| CCc1ccc(Nc2cc(C(=O)NCCCN(C)c3ccccc3)c3ccccc3n2)cc1 | inactive: 75% |
| CCOc1ccc(CCNC(=O)c2sc3ncccc3c2-n2c(C)ccc2C)cc1 | inactive: 106% |
| CCc1noc(-c2ccc(N(C)Cc3ccc(OC)cc3)c([N+](=O)[O-])c2)n1 | inactive: 75% |
| CCNC(=O)C1CCN(S(=O)(=O)c2ccc(C)cc2)CC1 | inactive: 99% |
| Cc1c(Cl)cccc1NC(=O)C(=O)NCC(c1cccnc1)N1CCN(c2ccccc2)CC1 (centres undefined) | inactive: 53% |
| O=C(c1ccco1)c1cn(CC(=O)N2CCc3ccccc3C2)c2ccccc12 | inactive: 98% |
| Cc1ccc2c(c1)CC(C)N2S(=O)(=O)c1nnc(NC(=O)C(C)C)s1 (centres undefined) | inactive: 58% |
| CCCN(C(=O)c1sc2nc3n(c(=O)c2c1C)CCCC3)c1ccccc1C | inactive: 70% |
| CCCNC(=O)C1CCC(Cn2c(=O)c3sccc3n(CC(=O)Nc3ccccc3C)c2=O)CC1 (centres undefined) | inactive: 93% |
| Cc1cccc(NC(=O)C2CCN(S(=O)(=O)c3ccc4c(c3)CCCC(=O)N4)CC2)c1 | inactive: 85% |
| Fc1ccc(Cc2cn3cc(-c4ccc(F)cc4)nc3s2)cc1 | inactive: 61% |
| COc1cc(NC(=O)c2cc3cc4cc(OC)ccc4nc3o2)cc(OC)c1 | inactive: 83% |
| Cc1ccc2[nH]c(=O)c(C(c3nnnn3C3CCCC3)N(C)C3CCCCC3)cc2c1 (centres undefined) | inactive: 94% |

| SMILES | survival |
| --- | --- |
| CCOc1cc(C2NC(=O)c3c(sc4c3CCN(C)C4)N2)ccc1OC(=O)c1ccc(F)cc1 (centres undefined) | inactive: 56% |
| CC1CCN(S(=O)(=O)N(C)C)CC1 | inactive: 86% |
| Cc1nc2nc(C)c(CCC(=O)NCc3cccc(Cl)c3)c(C)n2n1 | inactive: 84% |
| O=C(Cn1c(=O)n(Cc2ccco2)c(=O)c2sc3ccccc3c21)Nc1ccccc1C(F)(F)F | inactive: 78% |
| Cc1ccc(-n2nc(C)c3c(C)c(CCC(=O)NCc4ccccc4Cl)c(C)nc32)cc1 | inactive: 62% |
| CC(=O)NCCNC(=O)c1ccc2c(=O)n(CCc3ccccc3)c(=O)[nH]c2c1 | inactive: 83% |
| COc1ccc(C2=C(C(C)=O)Sc3nnc(-c4ccccc4)n3N2C(C)=O)cc1 | inactive: 87% |
| CC1(C)CC2CC(C)(CN2C(=O)Nc2ccccc2)C1 (centres undefined) | inactive: 75% |
| Cc1ccc(Cl)cc1N1CCN(C(=O)c2cn(C)c3ccc(S(=O)(=O)N4CCCCC4)cc3c2=O)CC1 | inactive: 68% |
| CC(C)CNc1cc(NC2CCCCC2)c2c3c(onc13)-c1ccccc1C2=O | inactive: 80% |
| CSc1ccc(CCNC(=O)CCc2c(C)nc3c4cccnc4nn3c2C)cc1 | inactive: 81% |
| CC(C(=O)O)N1CCCCC1 (centres undefined) | inactive: 79% |
| O=C(CC1N=C2c3ccccc3N=C(SCc3cccc(F)c3)N2C1=O)NC1CCCCC1 (centres undefined) | inactive: 93% |
| CCSc1nc2sc3c(c2c(=O)n1-c1ccc(C)cc1)CCCC3 | active: 0% |
| O=C(NC1CCCCC1)C(c1cccs1)N(Cc1ccco1)C(=O)C1COc2ccccc2O1 (centres undefined) | inactive: 96% |
| COc1cccc(CNCc2c(C(=O)O)c(C)n(Cc3ccc(F)cc3Cl)c2C)c1OC | inactive: 72% |
| O=C(Nc1ccc(F)c(F)c1)c1ccc(F)c(S(=O)(=O)N2CCC3(CC2)OCCO3)c1 | inactive: 67% |
| COc1cc(C2CC(=O)N(CC(=O)Nc3ccccc3F)c3ccccc3S2)cc(OC)c1OC (centres undefined) | inactive: 74% |
| CCC(C(=O)NCCc1ccc(SC)cc1)n1nc(C)c2c(C)n(-c3ccc(C)cc3)nc2c1=O (centres undefined) | inactive: 80% |
| Cc1ccc(CCNC(=O)c2ccc(CSc3nc4ccncc4n3Cc3ccc(F)cc3)cc2)cc1 | inactive: 104% |
| COC(=O)c1sc2ccccc2c1S(=O)(=O)N1CCN(c2ccc(C(C)=O)cc2)CC1 | inactive: 94% |
| Cc1ccc(-n2nc(CO)c(C(=O)NC(C)c3ccccc3)n2)cc1C (centres undefined) | active: 41% |
| O=C(Nc1ccc(F)cc1F)c1cc(-c2ccc3c(c2)OCO3)on1 | inactive: 71% |

| SMILES | survival |
| --- | --- |
| COC(=O)c1ccccc1NC(=O)CCc1c(C)nc2cc(-c3ccc(Cl)cc3)nn2c1C | active: 41% |
| CC(=O)c1cc(-c2ccc(F)cc2)n(CCC(=O)NC2CCCCC2)c1C | inactive: 99% |
| Cc1cccc(OCC(=O)Nc2cccc(-c3nc4ccccc4s3)c2)c1 | active: 7% |
| CCOC(=O)c1cc(CC)sc1NC(=O)COc1ccccc1C | inactive: 127% |
| Cc1cc(NC(=O)CN2CCC(O)CC2)nc2c1c(=O)oc1ccccc12 | inactive: 83% |
| COc1ccc(C(=O)NCC(c2ccc3c(c2)OCO3)N2CCN(C)CC2)cc1OC (centres undefined) | inactive: 120% |
| CCN1CCN(c2ncnc3c2cnn3-c2ccc(F)cc2)CC1 | inactive: 84% |
| CCn1c(=O)n(CC2CCC(C(=O)NC(C)C)CC2)c(=O)c2sccc21 (centres undefined) | inactive: 85% |
| COc1ccc(NC(=O)CSc2c(C(C)C)cnc3c2c(=O)n(C)c(=O)n3C)c(OC)c1 | inactive: 67% |
| COc1ccc2cc3c(N)nn(C(=O)c4ccc(F)cc4Cl)c3nc2c1 | inactive: 66% |
| COC(=O)c1ccc(CSc2nc3ccncc3n2Cc2ccc(F)cc2)cc1 | inactive: 93% |
| COc1ccc(C(=O)Oc2ccc(C3NC(=O)c4c(sc5c4CCN(C)C5)N3)cc2OC)cc1 (centres undefined) | inactive: 70% |
| Cc1ccc(Cl)cc1N1CCN(C(=O)c2cc(S(=O)(=O)N3CCCCC3)cn2C)CC1 | inactive: 83% |
| CC1=CC(C)(C)N(CC(=O)c2ccccc2)c2ccc(C)cc21 | inactive: 97% |
| COCC(C)Nc1ncnc2c1cnn2-c1cccc(Cl)c1 (centres undefined) | inactive: 102% |
| COc1ccc(CC(=O)Nc2ccc(-c3nc4ccccc4s3)c(C)c2)cc1 | inactive: 69% |
| CC(C)c1nc2sc3c(N4CCCCC4)ncnc3c2c2c1CCCC2 | inactive: 91% |
| COc1ccc(NC(=O)c2ccc3oc(=O)c(S(=O)(=O)c4ccc(F)cc4)cc3c2)c(OC)c1 | inactive: 87% |
| O=C(Nc1ccc(Cl)cc1)C1COc2ccccc2O1 (centres undefined) | inactive: 69% |
| CCOc1ccc(-n2c(SCC(=O)c3ccccc3)nc3c([nH]c4ccccc43)c2=O)cc1 | inactive: 131% |
| COc1cc(OC)c(NC(=O)CN(C)S(=O)(=O)c2ccc3c(c2)CCCC(=O)N3)cc1Cl | active: 6% |
| CCc1ccc(C(=O)c2cn(CC(=O)Nc3cccc(C)c3C)c3nc(C)ccc3c2=O)cc1 | inactive: 125% |
| Cc1cc(NC(=O)c2ccco2)cc(-c2nc3cc(Cl)ccc3o2)c1O | inactive: 79% |

| SMILES | survival |
| --- | --- |
| COc1ccc(Cl)cc1NC(=O)CN1C(=O)CSc2ccc(S(=O)(=O)N3CCCC3)cc21 | inactive: 94% |
| Cc1nnc(NC(=O)CC2CC3CCC2C3)s1 (centres undefined) | inactive: 59% |
| CCOc1ccc(NC(=O)CC2C(=O)N(c3cccc(C)c3)C(=O)N2CCC2=CCCCC2)cc1 (centres undefined) | inactive: 112% |
| CCOc1ccc(NC(=O)CCc2c(C)nc3c(c(C)nn3-c3ccccc3)c2C)cc1 | inactive: 55% |
| CSc1ccc(/C=C/c2nc3ccccc3n2S(=O)(=O)c2ccc(F)c(C)c2)cc1 | inactive: 91% |
| Cc1ccc(S(=O)(=O)n2nc(C)c(S(=O)(=O)N3CCCCC3)c2C)cc1 | inactive: 86% |
| CCc1ccc(CN(Cc2ccco2)C(=O)c2ccc(C)cc2)cc1 | active: 41% |
| CC(=O)Nc1ccccc1-c1nc2ccccc2n(C(C)C(=O)Nc2cccc(C)c2C)c1=O (centres undefined) | inactive: 100% |
| O=S(=O)(c1ccc(Cl)cc1)c1nnn2c1nc(NCc1ccccc1)c1sccc12 | inactive: 39% |
| CC(=O)N(Cc1cccnc1)c1nc2cc(C)cc(C)c2s1 | inactive: 74% |
| O=C(Nc1ccccc1)N(Cc1cccs1)c1ccc(Cl)cc1 | inactive: 105% |
| Cc1ccc2ccc3cc(C(=O)Nc4ccc(C)c(F)c4)nc3c2[nH]1 | inactive: 71% |
| CCOC(=O)N1CCN(S(=O)(=O)N2CCCC(C(=O)NCc3ccccc3OC)C2)CC1 (centres undefined) | inactive: 81% |
| CC(=O)N1CCCC1c1nc2ccccc2n1Cc1cc(C)ccc1C (centres undefined) | inactive: 106% |
| CCOC(=O)c1ccc(CN(Cc2ccc(F)cc2)S(=O)(=O)c2cc(C(=O)Nc3ccccc3CC)ccc2F)cc1 | inactive: 135% |
| COc1ccc(NC(=O)C2CCCN(S(=O)(=O)c3ccc4[nH]c(=O)ccc4c3)C2)cc1OC (centres undefined) | inactive: 83% |
| Cc1ccc(CNC(=O)c2cc(Sc3ccc(F)cc3F)nc3ccccc23)cc1 | inactive: 107% |
| Cc1cccc(NC(=O)CSc2nc(C)c(Cc3ccccc3)c(=O)[nH]2)c1C | inactive: 77% |
| COc1ccc(CCNC(=O)C2=C(C)C(=O)OC23CCCCC3)c(OC)c1 | inactive: 76% |
| CN(C)C(=O)CSc1nnc(-c2ccncc2)n1C | inactive: 89% |

Reference: PubChem BioAssay AID463173 (ICCB-Longwood Screening Facility, Harvard Medical School, 2010)
